Our source for the cytotoxicity call values is the antibiotic and cytotoxicity screens of Wong et al. (2023).

This is one part of the list.

In the test the test system is HepG2. Put plainly: cytotoxicity call (relative viability < 0.9). The settings on record: 10 µM.
For `Cc1noc(C)c1S(=O)(=O)Nc1ccc2c(c1)CC(=O)N([C@H](C)CO)C[C@@H](C)[C@H](CN(C)S(C)(=O)=O)O2`, the cytotoxicity call is “inactive”.

Regarding `COc1ccc(S(=O)(=O)Nc2ccc3c(c2)C(=O)N([C@H](C)CO)C[C@@H](C)[C@@H](CN(C)S(=O)(=O)c2cn(C)cn2)OCCCC[C@H](C)O3)cc1`, the cytotoxicity call was “inactive”.

Consider `C[C@H]1CCCCO[C@H](CN(C)C(=O)CCC(F)(F)F)[C@@H](C)CN([C@@H](C)CO)C(=O)c2cc(NC(=O)c3ccccc3)ccc2O1`, for which the cytotoxicity call was “inactive”.

With `COC(=O)c1cn(CC(N)=O)c2ccccc12`, the cytotoxicity call was “inactive”.

`COc1cc(OC)c(C(C)=O)c(O)c1C`: the cytotoxicity call is “inactive”.

With `CCCN1C(=O)[C@@]2(c3ccc([N+](=O)[O-])cc3)CC(=O)N(CC34CC5CC(CC(C5)C3)C4)[C@@H]2c2ccc(CO)cc21`, the cytotoxicity call was “inactive”.

As to `COc1ccc(S(=O)(=O)Nc2ccc3c(c2)CC(=O)N([C@@H](C)CO)C[C@@H](C)[C@@H](CN(C)S(C)(=O)=O)O3)cc1`, the cytotoxicity call is “inactive”.

With `COc1ccc(OC)c(S(=O)(=O)NC(=O)[C@@]2(C)CCN2C(=O)Cc2ccc(Cl)cc2Cl)c1`, the cytotoxicity call is “inactive”.

`CN1C(=O)c2cc(NC(=O)C3CCOCC3)ccc2OC[C@H]2O[C@H](CC(=O)NCCc3ccncc3)CC[C@@H]21`: the cytotoxicity call was “inactive”.

As to `C[C@@H]1CCCCO[C@@H](CN(C)C(=O)Nc2cccc3ccccc23)[C@H](C)CN([C@H](C)CO)C(=O)c2cc(NC(=O)C3CCCCC3)ccc2O1`, the cytotoxicity call was “active”.

For `COc1cccc(C#Cc2ccc3c(c2)O[C@@H](CN(C)S(=O)(=O)c2ccccc2F)[C@@H](C)CN([C@@H](C)CO)S3(=O)=O)c1`, the cytotoxicity call is “inactive”.

`C[C@@H]1CN([C@@H](C)CO)C(=O)c2cccc(NS(=O)(=O)c3cn(C)cn3)c2O[C@@H]1CN(C)Cc1ccccc1`: the cytotoxicity call was “inactive”.

On to `c1ccc(-c2cc(-c3ccccc3)n(-c3ccccc3)n2)cc1`, for which the cytotoxicity call was “inactive”.

Consider `C=CC[C@@H](CC(=O)NCCO)C(=O)N[C@H](COC(=O)[C@H](CC=C)CC(=O)OC(C)(C)C)Cc1ccccc1`, for which the cytotoxicity call was “inactive”.

Take `NCc1nnc2n1CCCCC2`: the cytotoxicity call is “inactive”.

Consider `Cc1ccc(S(=O)(=O)N2C[C@H](O)COC[C@H]3O[C@H](CC(=O)NCCN4CCCCC4)CC[C@@H]32)cc1`, for which the cytotoxicity call was “inactive”.

Turning to `C[C@H](CO)N1C[C@H](C)[C@@H](CN(C)S(=O)(=O)c2cn(C)cn2)OCc2cn(nn2)CCCC1=O`, the cytotoxicity call was “inactive”.

With `CC(C)(C)[S@](=O)N1Cc2cc(C(=O)N3CCc4ccccc4C3)nc(-c3cccc(-c4ccncc4)c3)c2[C@@H]1CCO`, the cytotoxicity call was “inactive”.
